According to PubChem BioAssay AID2147 (National Center for Advancing Translational Sciences (NCATS), 2009):
The campaign covered roughly 230,000 compounds. About 3,600 (1.6%) were called active. The shares of active, inactive and inconclusive entries below differ from those in the screen. Calls come from the whole dose curve; as a rule, active = well fitted inhibition curve with a large enough effect (not every such curve was filed as active); inconclusive = small, poorly fitted or top-dose-only effect, or another doubt; inactive = no such curve, though single readings can be large or run the other way. Where the call is inconclusive, the potency comes from a doubtful curve fit.

Each compound was assayed against Lysine-specific demethylase 4E (Homo sapiens) (UniProt B2RXH2) (assay: qHTS Assay for Inhibitors of Human Jumonji Domain Containing 2E (JMJD2E)). Details: JMJD2E catalytic domain, FDH-coupled NADH fluorescence (FDH is formaldehyde dehydrogenase); series mostly up to 57.1 µM.
Note: nearly all actives have a fitted effect of over 50% in size.
Potency is the fitted concentration of half-maximal effect; tags give direction and shape of the fitted curve.

UniProt B2RXH2, sequence (B2RXH2 whole entry, looked up, the tested form may be a part): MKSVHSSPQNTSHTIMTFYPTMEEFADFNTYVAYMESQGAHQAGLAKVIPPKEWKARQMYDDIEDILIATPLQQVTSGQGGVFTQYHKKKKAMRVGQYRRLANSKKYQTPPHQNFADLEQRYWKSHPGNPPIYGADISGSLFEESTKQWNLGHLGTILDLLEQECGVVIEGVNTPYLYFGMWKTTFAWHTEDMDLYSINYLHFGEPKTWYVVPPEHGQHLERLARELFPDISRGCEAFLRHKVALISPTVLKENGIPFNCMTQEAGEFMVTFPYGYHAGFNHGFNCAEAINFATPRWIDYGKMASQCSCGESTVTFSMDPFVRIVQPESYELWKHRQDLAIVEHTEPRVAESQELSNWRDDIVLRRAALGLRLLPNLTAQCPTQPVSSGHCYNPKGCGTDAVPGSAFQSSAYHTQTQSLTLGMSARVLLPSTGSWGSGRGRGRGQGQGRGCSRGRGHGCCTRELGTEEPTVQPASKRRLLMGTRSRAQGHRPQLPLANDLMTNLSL

**Q.** For N#Cc1ccc(-c2ccc(OCC(=O)NCC(=O)Nc3ccc(F)c(F)c3F)cc2)cc1, which Potency is on record?
**A.** inconclusive: 28.2 µM [inhibitor, partial curve]

**Q.** Which Potency does the source give for Cc1ccc(-c2cc(C(=O)NCc3ccco3)c3ccccc3n2)o1 here?
**A.** inconclusive: 31.6 µM [inhibitor, partial curve]

**Q.** For CCOC(=O)c1cc2c(ccn2-c2ccc(F)cc2)n1CC(=O)N1CCN(C(=O)c2ccco2)CC1, which Potency is on record?
**A.** inconclusive: 22.4 µM [inhibitor, partial curve]

**Q.** With CCOC(=O)Cc1csc(SCC(=O)NC2CCCC(C)C2C)n1 (stereo unspecified) as the compound, how does the Potency read?
**A.** inactive

**Q.** How did the Potency turn out when Cc1cc(C(=O)COC(=O)c2cc(O)c3ccccc3c2O)c(C)n1CC1CCCO1 (stereo unspecified) was run?
**A.** active: 28.2 µM

**Q.** For CC1(C)C2CCC1(CS(=O)(=O)N1CCC(C(=O)O)CC1)C(=O)C2 (stereo unspecified), which Potency is on record?
**A.** inconclusive: 39.8 µM [inhibitor, single point]

**Q.** How did the Potency turn out when N#C/C(=C\c1cn(CCOc2ccccc2)c2ccccc12)C(=O)NCC1CCCO1 (stereo unspecified) was run?
**A.** inconclusive: 39.8 µM [inhibitor, single point]

**Q.** With Cc1cccc(-c2nc(NCCCN3CCOCC3)c3ccccc3n2)c1 as the compound, how does the Potency read?
**A.** inconclusive: 39.8 µM [inhibitor, single point]

**Q.** Which Potency does the source give for Cc1ncc(C[n+]2csc(CCOC(=O)CC3C4CC5CC(C4)CC3C5)c2C)c(N)n1 (stereo unspecified) here?
**A.** inactive

**Q.** With COc1cccc2cc(C(=O)N3CCN(C45CC6CC(CC(C6)C4)C5)CC3)c(=O)oc12 as the compound, how does the Potency read?
**A.** inactive

**Q.** With Oc1ccccc1/C=N/Nc1ccnc(SCc2ccccc2)n1 as the compound, how does the Potency read?
**A.** inactive

**Q.** C=CCn1c(SCC(=O)N2CC(=O)Nc3ccccc32)nc2scc(-c3ccccc3)c2c1=O was tested. Which Potency did it give?
**A.** inconclusive: 39.8 µM [inhibitor, single point]

**Q.** How did the Potency turn out when Cc1cccc(-c2nc3cc(NC(=O)C4CCCO4)ccc3o2)c1 (stereo unspecified) was run?
**A.** inconclusive: 28.2 µM [inhibitor, partial curve]

**Q.** For O=C(COC(=O)c1ccc(NS(=O)(=O)c2ccc3c(c2)OCCO3)cc1)NCC1CCCO1 (stereo unspecified), which Potency is on record?
**A.** inactive

**Q.** How did the Potency turn out when CCOC(=O)c1cc(-c2ccc(N)cc2)sc1N was run?
**A.** inactive

**Q.** Which Potency does the source give for O=[N+]([O-])c1ccccc1NCc1c(O)ccc2ccccc12 here?
**A.** inconclusive: 39.8 µM [inhibitor, single point]

**Q.** With COc1ccc(OC)c(C2Nc3nc4ccccc4n3C(C)=C2C(=O)Nc2ccc(C)cc2C)c1 (stereo unspecified) as the compound, how does the Potency read?
**A.** inconclusive: 35.5 µM [inhibitor, single point]

**Q.** Which Potency does the source give for C1=C(c2ccc(-c3ccccc3)cc2)Nc2ncnn2C1c1ccco1 (stereo unspecified) here?
**A.** inconclusive: 8.91 µM [inhibitor, full curve]

**Q.** With N#C/C(=N\Nc1ccccc1F)c1nc(-c2ccccc2)cs1 as the compound, how does the Potency read?
**A.** inactive

**Q.** With CNCCCOc1cccc(OC(C)C)c1 as the compound, how does the Potency read?
**A.** inconclusive: 25.1 µM [inhibitor, single point]

**Q.** How did the Potency turn out when CCCCC(NC(=O)c1ccccc1)C(=O)OCC(=O)N1c2ccccc2Sc2ccccc21 (stereo unspecified) was run?
**A.** inactive

**Q.** O=[N+]([O-])c1cccc(N/N=C/c2cccc3ccccc23)c1 was tested. Which Potency did it give?
**A.** inconclusive: 22.4 µM [inhibitor, single point]

**Q.** Which Potency does the source give for COc1ccc(-c2nc(C#N)c(NCc3ccccc3Cl)o2)cc1 here?
**A.** inconclusive: 22.4 µM [inhibitor, partial curve]

**Q.** For O/N=C/c1ccc2ccccc2c1, which Potency is on record?
**A.** inconclusive: 3.16 µM [inhibitor, full curve]

**Q.** CC(=O)N1N=C(c2ccc(C)o2)CC1c1ccc(F)cc1 (stereo unspecified) was tested. Which Potency did it give?
**A.** inconclusive: 25.1 µM [inhibitor, single point]

**Q.** How did the Potency turn out when CC(C)(C)N1C(=O)c2ccccc2NC(=O)N1Cc1ccccc1 was run?
**A.** inactive

**Q.** Which Potency does the source give for O=C(NNS(=O)(=O)c1ccc(F)cc1)C1CC(c2cccnc2)=NO1 (stereo unspecified) here?
**A.** inactive

**Q.** Which Potency does the source give for CSc1nsc(SC)c1C(=O)NC(=O)Nc1cccnc1 here?
**A.** inconclusive: 28.2 µM [inhibitor, partial curve]

**Q.** O=C(N/N=C/c1ccc([N+](=O)[O-])cc1)c1cccc2cc[nH]c12 was tested. Which Potency did it give?
**A.** inactive

**Q.** Which Potency does the source give for c1cc(C2OCCN2CC2COC3(CCCC3)O2)ccn1 (stereo unspecified) here?
**A.** inconclusive: 39.8 µM [inhibitor, single point]

**Q.** How did the Potency turn out when CSc1ccc(/C=C/C(=O)OCC(=O)N(C)CCC#N)cc1 was run?
**A.** inconclusive: 31.6 µM [inhibitor, partial curve]

**Q.** For CC1CN(c2ncc(/C=N/NC(=O)c3ccccc3O)s2)CC(C)O1 (stereo unspecified), which Potency is on record?
**A.** inconclusive: 31.6 µM [inhibitor, single point]

**Q.** How did the Potency turn out when O=C(O)c1cc2c(ccc3ccccc32)oc1=O was run?
**A.** inconclusive: 31.6 µM [inhibitor, partial curve]

**Q.** How did the Potency turn out when Cc1nc(N2CCCCC2C)c2c(C)c(C(=O)Nc3cccc(C(F)(F)F)c3)sc2n1 (stereo unspecified) was run?
**A.** inconclusive: 22.4 µM [inhibitor, partial curve]

**Q.** Which Potency does the source give for CCOC(=O)c1c(NC=O)sc2c1CCC2 here?
**A.** inactive

**Q.** O=C(Nc1ccc(F)cc1)N1CCC(c2nc3c(nnn3Cc3ccccc3Cl)c(=O)[nH]2)CC1 was tested. Which Potency did it give?
**A.** inactive

**Q.** Which Potency does the source give for CC(C)Oc1ccc(C(=O)NCc2ccco2)cc1 here?
**A.** inactive

**Q.** Which Potency does the source give for CC(C)N(C(C)C)S(=O)(=O)c1ccc(NN)nc1 here?
**A.** inconclusive: 39.8 µM [inhibitor, single point]

**Q.** Which Potency does the source give for CN(C)S(=O)(=O)c1ccc(C(=O)Nc2nnc(-c3cccs3)o2)cc1 here?
**A.** inconclusive: 39.8 µM [inhibitor, single point]

**Q.** How did the Potency turn out when CCn1c(C)c(CCC(=O)O)c(=O)n2nc(-c3ccccc3OC)cc12 was run?
**A.** inconclusive: 31.6 µM [inhibitor, partial curve]

**Q.** With CCn1cc(C(=O)N2CCN(c3ccc([N+](=O)[O-])cc3)CC2)c(=O)c2ccc(C)nc21 as the compound, how does the Potency read?
**A.** inactive

**Q.** How did the Potency turn out when Cc1ccccc1NC(=S)NNc1ncc(C(F)(F)F)cc1Cl was run?
**A.** inactive

**Q.** Which Potency does the source give for CCOc1c2ccoc2nc2c(OC)c(OC)ccc12 here?
**A.** inconclusive: 28.2 µM [inhibitor, partial curve]

**Q.** How did the Potency turn out when CCCCc1ccc(/C=C2\C(=O)c3ccccc3C(O)=C2C(=O)OCC)cc1 was run?
**A.** inconclusive: 39.8 µM [inhibitor, single point]

**Q.** With C/C(=N\Nc1cc(-c2ccccc2)nc(-c2ccccc2)n1)c1ccc(O)c(C)c1 as the compound, how does the Potency read?
**A.** inactive

**Q.** Cc1ccc2c(c1)[nH]c1c(=O)n(CCCN3CCOCC3)cnc12 was tested. Which Potency did it give?
**A.** inconclusive: 35.5 µM [inhibitor, single point]

**Q.** CC1(C)CC(=O)C(C=NCCN2CCN(C3CC(=O)N(c4cccc(Br)c4)C3=O)CC2)=C(O)C1 (stereo unspecified) was tested. Which Potency did it give?
**A.** inactive

**Q.** For CCOC(=O)c1c(NC(=S)Nc2ccc(OCC)cc2)sc2c1CCN(C)C2, which Potency is on record?
**A.** inconclusive: 22.4 µM [inhibitor, single point]

**Q.** With O=C(CCS(=O)(=O)c1ccccc1)Nc1ccc2c(c1)C(=O)NC2=O as the compound, how does the Potency read?
**A.** inconclusive: 31.6 µM [inhibitor, partial curve]

**Q.** Which Potency does the source give for CCn1cnc2c1c(=O)n(CC(=O)Nc1ccc(C(N)=O)cc1)c(=O)n2Cc1ccccc1 here?
**A.** inconclusive: 25.1 µM [inhibitor, partial curve, poor fit]

**Q.** With NC(=O)CSc1nnc(-c2ccc(S(=O)(=O)N3CCOCC3)cc2)n1Cc1ccccc1 as the compound, how does the Potency read?
**A.** inconclusive: 20 µM [inhibitor, partial curve]

**Q.** Which Potency does the source give for CN(C)c1ccc(-c2n(C)c3ccccc3[n+]2C)cc1 here?
**A.** inconclusive: 11.2 µM [inhibitor, partial curve]

**Q.** CC(C)(C)NC(=O)NC(=O)COC(=O)c1cc(=O)[nH]c2ccccc12 was tested. Which Potency did it give?
**A.** inconclusive: 35.5 µM [inhibitor, single point]

**Q.** COCCCN1C(=O)/C(=C/c2ccc(CNS(=O)(=O)c3ccccc3)o2)C(C(=O)OC)=C1C was tested. Which Potency did it give?
**A.** inconclusive: 1.78 µM [inhibitor, partial curve, poor fit]

**Q.** Which Potency does the source give for O=[N+]([O-])c1ccc(Sc2n[nH]c(-c3ccc(Cl)cc3Cl)n2)nc1 here?
**A.** inconclusive: 35.5 µM [inhibitor, single point]

**Q.** Which Potency does the source give for Cc1cccc(OCC(=O)Nc2ccccc2C(=O)N2CCOCC2)c1 here?
**A.** inconclusive: 39.8 µM [inhibitor, single point]

**Q.** For COc1ccc(NC(=S)NCCc2c[nH]c3ccccc23)c(OC)c1, which Potency is on record?
**A.** inactive

**Q.** CS(=O)(=O)c1ccc2nc(NC(=O)CCC(=O)c3cccs3)sc2c1 was tested. Which Potency did it give?
**A.** inactive

**Q.** With CCCCNC(=O)C(C#N)c1nc2ccccc2nc1N1CCCC1 (stereo unspecified) as the compound, how does the Potency read?
**A.** inconclusive: 25.1 µM [inhibitor, partial curve]

**Q.** With COc1ccc(CCNC(=O)c2cc(-c3cc(C)ccc3O)n[nH]2)cc1OC as the compound, how does the Potency read?
**A.** inactive

**Q.** For COC(=O)CSc1nc(-c2ccc(C)cc2)c2c(c1C#N)CCCC2, which Potency is on record?
**A.** inconclusive: 35.5 µM [inhibitor, single point]

**Q.** COc1ccc(C2=NOC(C(=O)N3CCCc4ccccc43)C2)cc1 (stereo unspecified) was tested. Which Potency did it give?
**A.** inactive

**Q.** For CCCn1c(-c2ccc(F)cc2)nc2c(NC3CC4CCC(C3)N4C)nc(C)nc21 (stereo unspecified), which Potency is on record?
**A.** inconclusive: 28.2 µM [inhibitor, partial curve]

**Q.** Which Potency does the source give for C=C(C)C(=O)/C=C/C=C/c1ccccc1 here?
**A.** inactive

**Q.** Which Potency does the source give for Cc1cccc(OC(=O)n2c(=S)oc3cc(Cl)ccc32)c1 here?
**A.** inconclusive: 28.2 µM [inhibitor, single point]

**Q.** With CCC(CO)Nc1nc2ccc(Cl)cc2c2ccccc12 (stereo unspecified) as the compound, how does the Potency read?
**A.** inconclusive: 35.5 µM [inhibitor, single point]

**Q.** How did the Potency turn out when CN(C(=O)COC(=O)c1n[nH]c2ccccc12)C1CCS(=O)(=O)C1 (stereo unspecified) was run?
**A.** inconclusive: 31.6 µM [inhibitor, partial curve]

**Q.** O=[N+]([O-])c1cc(F)c(N2CCCCC2)cc1N1CCOCC1 was tested. Which Potency did it give?
**A.** inactive

**Q.** How did the Potency turn out when CC(=O)Cc1cc(=O)c2c(C)cc(O)c(C3OC(CO)C(O)C(O)C3O)c2o1 (stereo unspecified) was run?
**A.** inconclusive: 28.2 µM [inhibitor, partial curve]

**Q.** For CC(=O)C1=C(O)C(=O)N(c2nccs2)C1c1ccccc1F (stereo unspecified), which Potency is on record?
**A.** inconclusive: 31.6 µM [inhibitor, partial curve]

**Q.** Which Potency does the source give for O=c1c2ccccc2cnn1Cc1n[nH]c(=S)n1-c1cc(Cl)cc(Cl)c1 here?
**A.** inactive
